# Out of some 390,000 compounds screened, about 930 (0.24%) were called active. The shares of active, inactive and inconclusive entries below differ from those in the screen. Calls come from the whole dose curve; as a rule, active = well fitted activation curve with a large enough effect; inconclusive = small, poorly fitted or top-dose-only effect; inactive = no such curve, though single readings can be large or run the other way. Potencies beside an inconclusive call are fits to weak or partial responses and may not hold up.
# Test: qHTS for Suppressors of FUS Proteinopathy: Primary screen using FUS-linked yeast assay; note: nearly all actives have a fitted effect of over 55% in size;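 for growth rescue (activation): plate controls were DMSO vehicle for no effect and reference control for full effect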
# Details: S. cerevisiae FUS-expressing, OD600, 24 h; Potency: growth rescue; growth rescue (activation): at 76.6 µM (top of the series)
# In short: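 Toxicity suppression screen in FUS-yeast. Cells induced with 2% galactose, starting OD 0.005, treated 24hr at 30C with compounds at multiple final concentrations; growth by OD600.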
# Potency is the fitted concentration of half-maximal effect; tags give direction and shape of the fitted curve.
Compound,growth rescue (activation),Potency
COc1ccc(N(C)S(=O)(=O)c2cccc(C(=O)NC3CCC(C)CC3)c2)cc1 (stereo not given),inactive: 42.4%,–
COc1ccc(OC)c(NC(=O)N2CCC3(CC2)Oc2ccccc2C(=O)N3Cc2ccccc2F)c1,–,"inconclusive: 11.2 µM [activator, partial curve, poor fit]"
COc1ccc(S[C@]2(C(=O)N3CCCC3)CC(=O)N(C(=O)c3ccccc3)[C@@H]2c2ccc(OC)cc2)cc1,–,"inconclusive: 11.2 µM [activator, single point]"
Cc1cc(Nc2cccc(Cl)c2)nc2ccc(NC(=O)Cc3c(F)cccc3Cl)cc12,–,"inconclusive: 35.5 µM [activator, single point]"
COc1ccc(-n2c(C)cc(C(=O)COC(=O)c3ccc(O)cc3O)c2C)cc1,inactive: 7.78%,–
COc1ccc(CCC(=O)N/N=C\c2cccs2)cc1,–,"inconclusive: 22.4 µM [activator, partial curve, poor fit]"
Cc1ccc(NC(=O)N2CCCC2C(=O)Nc2ccc(-n3cnnn3)c(C)c2)cc1 (stereo not given),–,"inconclusive: 39.8 µM [activator, partial curve, poor fit]"
O=C(c1cccc(N2C(=O)C3CC=CCC3C2=O)c1)N1CCN(c2ccccc2)CC1 (stereo not given),–,"inconclusive: 50.1 µM [activator, partial curve, poor fit]"
COc1ccc(S(=O)(=O)N2CCN(S(=O)(=O)c3ccc4c(c3)OCCO4)CC2)cc1C,inactive: 32%,–
O=C(Nc1ccccc1)c1cccc(S(=O)(=O)NCc2ccco2)c1,inactive: 36.9%,–
CCOc1cc(C(c2c(C)[nH][nH]c2=O)c2c(C)[nH][nH]c2=O)ccc1OS(=O)(=O)c1ccccc1,–,"inconclusive: 44.7 µM [activator, partial curve, poor fit]"
COc1cc(S(=O)(=O)NC(C)C)ccc1Cl,inconclusive: 47.8% [activator],–
CCCN1CCc2c(sc(NC(=S)NC(=O)c3ccccc3)c2C#N)C1,–,"inconclusive: 50.1 µM [activator, single point]"
COC(=O)[C@]12C[C@H](CC(=O)NCCCCc3ccccc3)C(=O)N(Cc3cccc4ccccc34)C1=C[C@H](C(C)(C)C)O[C@@H]2C,–,"inconclusive: 3.16 µM [activator, partial curve, poor fit]"
COc1cc(OC)c(NC(=O)C(CC(C)C)N2Cc3ccccc3C2=O)cc1Cl (stereo not given),–,"inconclusive: 44.7 µM [activator, single point]"
Cc1cccc(N2CCN(C(=O)CCN3C(=O)C4C5C=CC(C5)C4C3=O)CC2C)c1 (stereo not given),inactive: -12.2%,–
Cc1cc(C)n(-c2cc(C(C)(C)C)nc3c(-c4ccccc4)cnn23)n1,inactive: 20.4%,–
COc1ccc(C(c2nnnn2C2CCCCC2)N2CCN(c3ccc(OC)cc3)CC2)cc1 (stereo not given),–,"inconclusive: 7.94 µM [activator, partial curve]"
COc1ccc(CNC(=O)c2sc(=O)n(Cc3ccc(S(=O)(=O)N(C)C)cc3)c2C)cc1,–,"inconclusive: 44.7 µM [activator, single point]"
CCOc1ccc(/C=C/c2nc(C#N)c(NCc3ccc(OC)cc3)o2)cc1,inactive: -0.35%,–

Compound,growth rescue (activation),Potency
O=C(O)COc1ccccc1C(Nc1cccnc1)c1cc(Cl)c2cccnc2c1O (stereo not given),–,"inconclusive: 20 µM [activator, partial curve, poor fit]"
COc1cccc(-c2ccc(CN3C(C(C)C)C(=O)N(Cc4cn(CCC5OCCO5)nn4)CCS3(=O)=O)cc2)c1OC (stereo not given),–,"inconclusive: 0.891 µM [activator, full curve, poor fit]"
COC(=O)[C@@]12CCCCC3=C1N(CCC3)C(=O)[C@H]2CC(=O)N1CCSCC1,inactive: 4.79%,–
CN(C)c1ccc(-c2cc(NC=O)c3ncc(-c4ccc(F)c(Cl)c4)n3c2)cc1,–,"inconclusive: 28.2 µM [activator, single point]"
CN(C(=O)n1cnc2ccccc21)c1ccccc1,inactive: -14.6%,–
c1ccc2c(c1)OCC(CNc1ncnc3sccc13)O2 (stereo not given),inactive: 10.5%,–
CC(C)NC(=O)c1cc(C(=O)c2cc(Cl)ccc2O)coc1=N,–,"inconclusive: 12.6 µM [activator, partial curve, poor fit]"
Cc1ccc(NC(=S)NNC(=S)Nc2ccc(C)cc2C)cc1,inactive: 6.33%,–
Cc1cc(C)n(CC(=O)c2cccc([N+](=O)[O-])c2)n1,–,"inconclusive: 25.1 µM [activator, partial curve, poor fit]"
CCOC(=O)N1CCN(C(=O)c2ccc3c(=O)n(-c4ccc(OC)cc4)c(=S)[nH]c3c2)CC1,inconclusive: 49.9% [activator],–
Cc1cc2ccccc2n1CCNC(=O)Cc1ccccc1,–,"inconclusive: 31.6 µM [activator, single point]"
C=CCN1C(c2ccc(Br)cc2)=CS/C1=C(/C#N)c1nnc(N2CCOCC2)n1-c1ccccc1,–,"inconclusive: 20 µM [activator, partial curve, poor fit]"
COc1ccc(NC(=O)N(CCc2c(C)[nH]c3ccccc23)Cc2cccs2)cc1OC,–,"inconclusive: 28.2 µM [activator, partial curve, poor fit]"
CCn1ncc(Cl)c1C(=O)NC(=S)Nc1ccccc1Br,inactive: 10.5%,–
CC(C)c1ccc(NC2CCCN(C(=O)c3cc(C(C)C)[nH]n3)C2)cc1 (stereo not given),–,"inconclusive: 15.8 µM [activator, partial curve, poor fit]"
O=C(Nc1ccc2c(c1)OCCO2)C(c1ccnc2ccccc12)n1c(=O)c(-c2ccco2)nc2ccccc21 (stereo not given),–,"inconclusive: 25.1 µM [activator, single point]"
CCOc1ccc(OCC)c(-c2c(=O)n(OCc3ccc(C(C)(C)C)cc3)c3ccccc3[n+]2[O-])c1,–,"inconclusive: 8.91 µM [activator, partial curve, poor fit]"
Cc1ccc(Nc2nc(-c3ccc(O)c(O)c3)cs2)nc1,–,"inconclusive: 14.1 µM [activator, partial curve, poor fit]"
CC(C)Cn1cc(C(=O)N2CCN(c3ccccn3)CC2)c2c3ccccc3n(C)c2c1=O,inactive: 21.9%,–
CCN(CC(=O)Nc1cccc(S(=O)(=O)N(C)c2ccccc2)c1)Cc1ccccc1,inactive: 6.54%,–

# From PubChem BioAssay AID1347120 (National Center for Advancing Translational Sciences (NCATS), 2019)
